Target: 5-HT2C receptor (Homo sapiens, UniProt P28335)
Details: FIG. 15, FIG. 16A/B

CCN(CC)C(=O)[C@@H]1C=C2c3cccc4[nH]c(Br)c(c34)C[C@H]2N(C)C1 [E559, (5R, 8R)-2-Bromo-9,10-didehydro-N,N-diethyl-6-methylergoline-8-carboxamide hemi-D-tartrate]
functional activity at 5-HT2C: exhibits partial agonism at 5-HT2C
